Like-named read-outs stand apart in the source and are kept apart here.

The target of the assay is mu opioid receptor (Homo sapiens, UniProt P35372). The assay is described as follows: biochemical. The assay is classed as binding. The arrangement: expressed in transfected cells; host or cells: transfected cells.
Where [1] appears, read: Table 7, CHO membranes, read-out: Ki mu.
The mark [2] stands for this setting: Table 5, Example 33, listed as II.

Chain of mu opioid receptor (P35372 whole entry): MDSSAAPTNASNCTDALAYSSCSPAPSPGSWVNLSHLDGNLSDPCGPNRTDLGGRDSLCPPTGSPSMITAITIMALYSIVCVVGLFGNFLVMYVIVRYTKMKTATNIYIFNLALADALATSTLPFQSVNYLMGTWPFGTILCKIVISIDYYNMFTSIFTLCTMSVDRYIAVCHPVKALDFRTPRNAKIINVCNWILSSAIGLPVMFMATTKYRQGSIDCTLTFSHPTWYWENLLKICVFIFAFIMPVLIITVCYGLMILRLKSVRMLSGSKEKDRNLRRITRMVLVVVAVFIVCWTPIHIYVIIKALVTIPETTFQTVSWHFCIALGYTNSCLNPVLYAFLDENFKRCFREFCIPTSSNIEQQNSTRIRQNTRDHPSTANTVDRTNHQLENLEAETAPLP

In the case of `COC(=O)[C@H]1OC(CC(=O)NC2C=CC3C4Cc5ccc(O)c6c5C3(CCN4C)C2O6)[C@H](OC(C)=O)[C@@H](OC(C)=O)[C@@H]1OC(C)=O` (stereo in doubt) [compound 10, 6α-(Methyl 2′,3′,4′-tri-O-acetyl-β-D-glucopyranosyluronate)acetamido-morphine], the Ki (Table 1, read-out: Ki μ) stood at 2.8 nM.
In the case of `CC(=O)OC[C@H]1OC(SC2C=CC3C4Cc5ccc(OC(C)=O)c6c5C3(CCN4C)C2O6)[C@H](OC(C)=O)[C@@H](OC(C)=O)[C@@H]1OC(C)=O` (stereo partly drawn) [3c, 3-O-Acetyl-6β-S-(2′,3′,4′,5′-tetra-O-acetyl-β-D-glucopyranosyl)-6β-thiomorphine], the Ki (Table 1, read-out: Ki μ) amounted to 305 ± 66 nM.
As to `CC(=O)OC[C@H]1OC(SC2C=CC3C4Cc5ccc(O)c6c5C3(CCN4C)C2O6)[C@H](OC(C)=O)[C@@H](OC(C)=O)[C@@H]1OC(C)=O` (stereo partly drawn) [3d, 6-βS-(2′,3′,4′,5′-Tetra-O-acetyl-β-D-glucopyranosyl)-6β-thiomorphine], under “Ki ratio, Table 1”, the κ/μ worked out at 382. Also, the Ki (Table 1, read-out: Ki μ) was 7.78 ± 0.48 nM.
Regarding `COC(=O)[C@H]1OC(SC2C=CC3C4Cc5ccc(OC)c6c5C3(CCN4C)C2O6)[C@H](OC(C)=O)[C@@H](OC(C)=O)[C@@H]1OC(C)=O` (stereo partly drawn) [3e, 6β-S-(Methyl-2′,3′,4′-tri-O-acetyl-β-D-glucopyranosyluronate)codeine], for the setting “Ki ratio, Table 1”, the δ/μ was 6.8 and the κ/μ is 7.8. Besides, the Ki (Table 1, read-out: Ki μ) amounted to 64 ± 1.1 nM.
In the same order, the values of `COc1ccc2c3c1OC1C(SC4O[C@H](COC(C)=O)[C@@H](OC(C)=O)[C@H](OC(C)=O)[C@H]4OC(C)=O)C=CC4C(C2)N(C)CCC341` (stereo partly drawn) [3f, 6-S-(2′,3′,4′,5′-Tetra-O-acetyl-β-D-glucopyranosyl)6β-thiocodeine] are 2.8, 13 and 165 ± 27.7 nM.
The matching figures for `CN1CCC23c4c5ccc(O)c4OC2C(SC2O[C@H](C(=O)O)[C@@H](O)[C@H](O)[C@H]2O)C=CC3C1C5` (stereo partly drawn) [4a, Morphine-6β-S-D-glucuronide]: 3.6, 33 and 8.73 ± 0.85 nM.
Consider `CN1CCC23c4c5ccc(O)c4OC2C(SC2O[C@H](CO)[C@@H](O)[C@H](O)[C@H]2O)C=CC3C1C5` (stereo partly drawn) [4b, 6β-Thiomorphine-6β-S-D-glucopyranoside], for which, under “Ki ratio, Table 1”, the δ/μ is 10.4 and the κ/μ is given as 25.
On to `COc1ccc2c3c1OC1C(SC4O[C@H](C(=O)O)[C@@H](O)[C@H](O)[C@H]4O)C=CC4C(C2)N(C)CCC341` (stereo partly drawn) [4c, Codeine 6β-S-glucuronide], for which, for the setting “Ki ratio, Table 1”, the δ/μ is given as 5.8 and the κ/μ is more than 21. In addition, under “Table 1, read-out: Ki μ”, the Ki came out at 463 ± 57 nM.
The matching figures for `COc1ccc2c3c1OC1C(SC4O[C@H](CO)[C@@H](O)[C@H](O)[C@H]4O)C=CC4C(C2)N(C)CCC341` (stereo partly drawn) [4d, 6β-Thiocodeine-6β-S-D-glucose]: 9, 19.5 and 127 ± 22.7 nM.
Regarding `O=C(CC1OC(CO)C(O)C(O)C1O)NC1CCC2(O)C3Cc4ccc(O)c5c4C2(CCN3CC2CC2)C1O5` (centres unmarked) [6a, 14-Hydroxy-17-(cyclopropylmethyl)nordesmorphine-6-acetamidoglucose], the Ki mu result (Table 7, CHO membranes) is on record as “high affinity”. Besides, the Ki under setting [1] was determined as 1.8 ± 0.5 nM.
Molecule `CN(C)c1cccc(C(=O)NC2CCC3(O)C4Cc5ccc(O)c6c5C3(CCN4CC3CC3)C2O6)c1` (centres unmarked) [6c, 6-(3′-dimethylamino)benzamido-14-hydroxy-17-(cyclopropylmethyl)nordesmorphine] had a Ki of 2.9 ± 0.1 nM.
With `COc1cccc(C(=O)NC2CCC3(O)C4Cc5ccc(O)c6c5C3(CCN4CC3CC3)C2O6)c1` (centres unmarked) [6d, 6-(3′-Methoxy)benzamido-14-hydroxy-17-(cyclopropylmethyl)nordesmorphine], the Ki under setting [1] is 0.6 ± 0.1 nM.
On to `O=C(Cc1cccs1)NC1CCC2(O)C3Cc4ccc(O)c5c4C2(CCN3CC2CC2)C1O5` (centres unmarked) [6e, 6-(Thiophen-2′-yl)acetamidomido-14-hydroxy-17-(cyclopropylmethyl) nordesmorphine], for which affinity was put at a Ki of 2.9 ± 0.1 nM.
As for `COC(=O)[C@H]1OC(CC(=O)NC2C=CC3C4Cc5ccc(OC)c6c5C3(CCN4C)C2O6)[C@H](OC(C)=O)[C@@H](OC(C)=O)[C@@H]1OC(C)=O` (some centres unmarked) [9b], the “fold higher affinity (potency) for the mu receptor than M6G” value stood at 1.7 fold. Besides, under “Ki ratio, Table 1”, the δ/μ was determined as 24 and the κ/μ is 67. Moreover, where the note is “Table 1, read-out: Ki μ”, the Ki is 7.43 nM.
On to `CN1CCC23c4c5ccc(O)c4OC2C(NC(=O)CC2O[C@H](C(=O)O)[C@@H](O)[C@H](O)[C@H]2O)C=CC3C1C5` (stereo partly drawn) [11a, 6β-(α-Glucuronosyl)acetamidomorphine], for which, under “Ki ratio, Table 1”, the δ/μ is reported as 3.7 and the κ/μ was 22. Moreover, for the setting “Table 1, read-out: Ki μ”, the Ki was 14.6 nM.
Consider `COc1ccc2c3c1OC1C(NC(=O)CC4O[C@H](C(=O)O)[C@@H](O)[C@H](O)[C@H]4O)C=CC4C(C2)N(C)CCC341` (some centres unmarked) [11b], for which the “fold reduction in binding affinity” value came to 3.2 fold. In addition, for the setting “Ki ratio, Table 1”, the δ/μ is reported as 24 and the κ/μ came to 241. Further, for the setting “Table 1, read-out: Ki μ”, the Ki was 41.5 nM.
For the molecule `COc1cccc(CC(=O)NC2C=CC3C4Cc5ccc(O)c6c5C3(CCN4C)C2O6)c1` (stereo not drawn) [13a, 6β-(3-Methoxyphenyl)acetamidomorphine], for the setting “Ki ratio, Table 1”, the δ/μ came to 27 and the κ/μ is 2.7. Further, the Ki (Table 1, read-out: Ki μ) stood at 0.35 ± 0.08 nM.
In the same order, the values of `COc1ccc(CC(=O)NC2C=CC3C4Cc5ccc(O)c6c5C3(CCN4C)C2O6)cc1` (stereo not drawn) [13b, 6β-(4-Methoxyphenyl)acetamidomorphine] are 44, 4.8 and 0.59 ± 0.19 nM.
In the same order, the values of `COc1cccc(C(=O)NC2C=CC3C4Cc5ccc(O)c6c5C3(CCN4C)C2O6)c1` (stereo not drawn) [13c, 6β-(3-Methoxy)benzamidomorphine] are 42, 12.8 and 0.21 ± 0.07 nM.
In the same order, the values of `CN1CCC23c4c5ccc(O)c4OC2C(NC(=O)c2ccccc2)C=CC3C1C5` (centres unmarked) [13d, 60-Benzamidomorphine] are 62.5, 10.3 and 0.4 ± 0.03 nM.
In the case of `COC(=O)c1cccc(C(=O)NC2C=CC3C4Cc5ccc(O)c6c5C3(CCN4C)C2O6)c1` (stereo not drawn) [13e, 6β-(3′-Carbomethoxy)benzamidomorphine], for the setting “Ki ratio, Table 1”, the δ/μ amounted to 15 and the κ/μ is on record as 6.7. For the setting “Table 1, read-out: Ki μ”, the Ki was determined as 0.23 nM.
`CN1CCC23c4c5ccc(O)c4OC2C(NC(=O)c2cccc([N+](=O)[O-])c2)C=CC3C1C5` (stereo not drawn) [13f, 6β-(3′Nitro)benzamidomorphine]: under “Ki ratio, Table 1”, the δ/μ turned out to be 36 and the κ/μ was found to be 13. Under “Table 1, read-out: Ki μ”, the Ki came out at 0.2 ± 0.04 nM.
The matching figures for `CN1CCC23c4c5ccc(O)c4OC2C(NC(=O)c2ccc(Cl)c(Cl)c2)C=CC3C1C5` (stereo not drawn) [13g, 6β-(3′,4′-Dichloro)benzamidomorphine]: 4.7, 3.8 and 0.2 ± 0.04 nM.
For the molecule `CN1CCC23c4c5ccc(O)c4OC2C(NC(=O)Cc2cccs2)C=CC3C1C5` (stereo not drawn) [13h, 6β-(Thiophen-2′-yl)acetamidomorphine], under “Ki ratio, Table 1”, the δ/μ is given as 44 and the κ/μ is 1.8. Moreover, for the setting “Table 1, read-out: Ki μ”, the Ki was determined as 0.33 ± 0.02 nM.
`CN1CCC23c4c5ccc(O)c4OC2C(OC2O[C@H](C(=O)O)[C@@H](O)[C@H](O)[C@H]2O)C=CC3C1C5` (some centres unmarked) [M6G, Morphine-6-glucuronide, reference compound] yielded a Ki of 12.8 ± 0.95 nM, a δ/μ of 13 and a κ/μ of 317.
`O=C(C[C@@H]1O[C@H](COCc2ccccc2)[C@@H](OCc2ccccc2)[C@H](OCc2ccccc2)[C@H]1OCc1ccccc1)NC1CC[C@@]2(O)[C@H]3Cc4ccc(O)c5c4[C@@]2(CCN3CC2CC2)[C@H]1O5` (stereo partly drawn) [compound 5, 6-acetamido-2,3,4,6-tetra-O-benzyl-D-glucopyranosyl-14-Hydroxy-17-(cyclopropylmethyl)nordesmorphine]: under “Table 7, CHO membranes”, the Ki mu entry was “high affinity”. In addition, the Ki under setting [1] amounted to 2.5 ± 0.6 nM.
Regarding `CN1CC[C@]23c4c5ccc(O)c4O[C@H]2[C@H](NC(=O)C[C@@H]2O[C@H](COCc4ccccc4)[C@@H](OCc4ccccc4)[C@H](OCc4ccccc4)[C@H]2OCc2ccccc2)C=C[C@H]3[C@H]1C5` [compound 11], the “fold higher affinity (potency) for the mu receptor than M6G” value is on record as 27 fold. In addition, under “Table 5, Example 33”, the “Receptor selectivity δ/μ” value was 10.3 and the “Receptor selectivity κ/μ” value was determined as 33.7. Under setting [2], the “Receptor selectivity δ/μ” value came out at 10 and the “Receptor selectivity κ/μ” value was 34. Further, under “Table 5, Example 33, ± SEM, read-out: Ki μ”, the Ki stood at 0.47 ± 0.15 nM. Further, the “receptor selectivity in binding” value (mu versus delta and kappa) is “μ receptor selective”.
For the molecule `CN1CCC23c4c5ccc(O)c4OC2C(NC(=O)c2cccc(C(=O)O)c2)C=CC3C1C5` (stereo not drawn) [compound 14, 6β-(3′Carboxy)benzamidomorphine], where the note is “Ki ratio, Table 1”, the δ/μ stood at 2.5 and the κ/μ was determined as 502. In addition, the Ki (Table 1, read-out: Ki μ) worked out at 19.9 nM.
For the molecule “Dihydromorphine-6-β-acetamidoglucose [compound 3]”, the inhibition constant Ki (read-out: Ki μ) was 3.47 ± 0.37 nM.
